Reference: article PMC5460031
Results are given in words; binding and its absence hold for the method and conditions named. For part of these data: In cells and extracts the contact can be indirect. Some entries that bind do so weakly or less than the wild type. One block for each binder: values may come before it.

Chains of the proteins cited; added tags and fusions are not shown. Residues count along the entry.
UniProt P46531, residues 19-2555: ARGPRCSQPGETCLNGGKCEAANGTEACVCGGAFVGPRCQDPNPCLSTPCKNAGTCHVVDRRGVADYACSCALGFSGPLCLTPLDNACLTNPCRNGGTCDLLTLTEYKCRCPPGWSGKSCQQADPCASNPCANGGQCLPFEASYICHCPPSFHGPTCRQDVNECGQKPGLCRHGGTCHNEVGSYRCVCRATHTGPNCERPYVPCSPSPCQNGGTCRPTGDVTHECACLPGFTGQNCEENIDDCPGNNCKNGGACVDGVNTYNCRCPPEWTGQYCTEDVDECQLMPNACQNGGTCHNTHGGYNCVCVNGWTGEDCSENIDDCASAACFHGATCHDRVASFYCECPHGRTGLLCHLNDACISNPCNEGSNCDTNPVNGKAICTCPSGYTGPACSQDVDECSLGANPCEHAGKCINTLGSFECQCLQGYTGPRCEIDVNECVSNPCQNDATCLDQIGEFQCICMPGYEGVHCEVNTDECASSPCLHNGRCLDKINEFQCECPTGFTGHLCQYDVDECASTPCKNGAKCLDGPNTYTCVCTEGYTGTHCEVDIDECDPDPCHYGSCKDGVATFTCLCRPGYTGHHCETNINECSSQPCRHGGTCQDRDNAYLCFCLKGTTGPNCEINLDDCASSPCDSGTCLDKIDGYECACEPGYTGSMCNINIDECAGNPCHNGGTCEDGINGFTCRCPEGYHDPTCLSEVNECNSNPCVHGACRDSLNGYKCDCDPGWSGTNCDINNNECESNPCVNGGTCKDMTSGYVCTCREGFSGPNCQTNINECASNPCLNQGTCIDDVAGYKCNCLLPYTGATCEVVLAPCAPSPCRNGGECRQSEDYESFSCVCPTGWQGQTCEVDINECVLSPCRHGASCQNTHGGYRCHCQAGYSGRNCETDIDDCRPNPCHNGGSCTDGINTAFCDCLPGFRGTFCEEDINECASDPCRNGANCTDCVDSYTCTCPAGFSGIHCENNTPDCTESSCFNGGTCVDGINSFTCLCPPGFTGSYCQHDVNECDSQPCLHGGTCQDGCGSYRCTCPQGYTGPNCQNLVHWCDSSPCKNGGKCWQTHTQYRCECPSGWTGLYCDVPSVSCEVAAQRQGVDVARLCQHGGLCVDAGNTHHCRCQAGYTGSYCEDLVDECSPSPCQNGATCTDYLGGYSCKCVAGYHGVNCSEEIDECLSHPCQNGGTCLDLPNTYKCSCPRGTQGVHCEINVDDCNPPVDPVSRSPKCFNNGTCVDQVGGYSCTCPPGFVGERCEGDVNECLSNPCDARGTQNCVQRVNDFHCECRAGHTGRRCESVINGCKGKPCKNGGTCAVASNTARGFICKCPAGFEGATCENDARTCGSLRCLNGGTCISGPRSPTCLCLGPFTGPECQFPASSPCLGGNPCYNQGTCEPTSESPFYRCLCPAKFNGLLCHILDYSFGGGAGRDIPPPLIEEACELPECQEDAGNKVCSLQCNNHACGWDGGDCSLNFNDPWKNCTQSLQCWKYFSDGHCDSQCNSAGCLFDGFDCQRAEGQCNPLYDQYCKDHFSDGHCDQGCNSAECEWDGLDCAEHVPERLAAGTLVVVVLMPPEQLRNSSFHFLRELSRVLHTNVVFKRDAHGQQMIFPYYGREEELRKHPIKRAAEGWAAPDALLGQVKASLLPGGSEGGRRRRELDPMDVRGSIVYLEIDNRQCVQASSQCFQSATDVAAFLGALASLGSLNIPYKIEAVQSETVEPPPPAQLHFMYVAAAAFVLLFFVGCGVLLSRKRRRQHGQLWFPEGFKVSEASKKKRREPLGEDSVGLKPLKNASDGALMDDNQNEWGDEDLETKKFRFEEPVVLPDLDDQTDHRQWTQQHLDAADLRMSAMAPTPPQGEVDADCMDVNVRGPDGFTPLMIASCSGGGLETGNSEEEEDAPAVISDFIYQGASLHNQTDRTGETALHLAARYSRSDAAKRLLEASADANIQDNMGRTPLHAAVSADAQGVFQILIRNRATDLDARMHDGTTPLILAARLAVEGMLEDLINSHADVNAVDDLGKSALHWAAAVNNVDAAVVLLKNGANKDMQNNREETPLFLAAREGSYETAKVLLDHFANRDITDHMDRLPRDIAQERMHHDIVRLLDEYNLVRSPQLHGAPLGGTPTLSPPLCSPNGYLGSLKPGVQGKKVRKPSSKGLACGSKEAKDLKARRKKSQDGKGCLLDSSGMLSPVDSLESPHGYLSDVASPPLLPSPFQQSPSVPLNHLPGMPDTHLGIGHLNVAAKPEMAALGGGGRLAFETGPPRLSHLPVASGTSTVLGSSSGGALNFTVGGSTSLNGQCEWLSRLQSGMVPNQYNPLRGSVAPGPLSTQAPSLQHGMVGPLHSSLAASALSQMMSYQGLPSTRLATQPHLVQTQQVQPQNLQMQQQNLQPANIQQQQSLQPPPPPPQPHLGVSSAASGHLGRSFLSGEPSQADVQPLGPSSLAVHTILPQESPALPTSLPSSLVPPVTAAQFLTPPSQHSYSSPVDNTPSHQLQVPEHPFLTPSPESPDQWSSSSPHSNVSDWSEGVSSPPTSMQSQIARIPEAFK
UniProt Q01705, residues 19-2531: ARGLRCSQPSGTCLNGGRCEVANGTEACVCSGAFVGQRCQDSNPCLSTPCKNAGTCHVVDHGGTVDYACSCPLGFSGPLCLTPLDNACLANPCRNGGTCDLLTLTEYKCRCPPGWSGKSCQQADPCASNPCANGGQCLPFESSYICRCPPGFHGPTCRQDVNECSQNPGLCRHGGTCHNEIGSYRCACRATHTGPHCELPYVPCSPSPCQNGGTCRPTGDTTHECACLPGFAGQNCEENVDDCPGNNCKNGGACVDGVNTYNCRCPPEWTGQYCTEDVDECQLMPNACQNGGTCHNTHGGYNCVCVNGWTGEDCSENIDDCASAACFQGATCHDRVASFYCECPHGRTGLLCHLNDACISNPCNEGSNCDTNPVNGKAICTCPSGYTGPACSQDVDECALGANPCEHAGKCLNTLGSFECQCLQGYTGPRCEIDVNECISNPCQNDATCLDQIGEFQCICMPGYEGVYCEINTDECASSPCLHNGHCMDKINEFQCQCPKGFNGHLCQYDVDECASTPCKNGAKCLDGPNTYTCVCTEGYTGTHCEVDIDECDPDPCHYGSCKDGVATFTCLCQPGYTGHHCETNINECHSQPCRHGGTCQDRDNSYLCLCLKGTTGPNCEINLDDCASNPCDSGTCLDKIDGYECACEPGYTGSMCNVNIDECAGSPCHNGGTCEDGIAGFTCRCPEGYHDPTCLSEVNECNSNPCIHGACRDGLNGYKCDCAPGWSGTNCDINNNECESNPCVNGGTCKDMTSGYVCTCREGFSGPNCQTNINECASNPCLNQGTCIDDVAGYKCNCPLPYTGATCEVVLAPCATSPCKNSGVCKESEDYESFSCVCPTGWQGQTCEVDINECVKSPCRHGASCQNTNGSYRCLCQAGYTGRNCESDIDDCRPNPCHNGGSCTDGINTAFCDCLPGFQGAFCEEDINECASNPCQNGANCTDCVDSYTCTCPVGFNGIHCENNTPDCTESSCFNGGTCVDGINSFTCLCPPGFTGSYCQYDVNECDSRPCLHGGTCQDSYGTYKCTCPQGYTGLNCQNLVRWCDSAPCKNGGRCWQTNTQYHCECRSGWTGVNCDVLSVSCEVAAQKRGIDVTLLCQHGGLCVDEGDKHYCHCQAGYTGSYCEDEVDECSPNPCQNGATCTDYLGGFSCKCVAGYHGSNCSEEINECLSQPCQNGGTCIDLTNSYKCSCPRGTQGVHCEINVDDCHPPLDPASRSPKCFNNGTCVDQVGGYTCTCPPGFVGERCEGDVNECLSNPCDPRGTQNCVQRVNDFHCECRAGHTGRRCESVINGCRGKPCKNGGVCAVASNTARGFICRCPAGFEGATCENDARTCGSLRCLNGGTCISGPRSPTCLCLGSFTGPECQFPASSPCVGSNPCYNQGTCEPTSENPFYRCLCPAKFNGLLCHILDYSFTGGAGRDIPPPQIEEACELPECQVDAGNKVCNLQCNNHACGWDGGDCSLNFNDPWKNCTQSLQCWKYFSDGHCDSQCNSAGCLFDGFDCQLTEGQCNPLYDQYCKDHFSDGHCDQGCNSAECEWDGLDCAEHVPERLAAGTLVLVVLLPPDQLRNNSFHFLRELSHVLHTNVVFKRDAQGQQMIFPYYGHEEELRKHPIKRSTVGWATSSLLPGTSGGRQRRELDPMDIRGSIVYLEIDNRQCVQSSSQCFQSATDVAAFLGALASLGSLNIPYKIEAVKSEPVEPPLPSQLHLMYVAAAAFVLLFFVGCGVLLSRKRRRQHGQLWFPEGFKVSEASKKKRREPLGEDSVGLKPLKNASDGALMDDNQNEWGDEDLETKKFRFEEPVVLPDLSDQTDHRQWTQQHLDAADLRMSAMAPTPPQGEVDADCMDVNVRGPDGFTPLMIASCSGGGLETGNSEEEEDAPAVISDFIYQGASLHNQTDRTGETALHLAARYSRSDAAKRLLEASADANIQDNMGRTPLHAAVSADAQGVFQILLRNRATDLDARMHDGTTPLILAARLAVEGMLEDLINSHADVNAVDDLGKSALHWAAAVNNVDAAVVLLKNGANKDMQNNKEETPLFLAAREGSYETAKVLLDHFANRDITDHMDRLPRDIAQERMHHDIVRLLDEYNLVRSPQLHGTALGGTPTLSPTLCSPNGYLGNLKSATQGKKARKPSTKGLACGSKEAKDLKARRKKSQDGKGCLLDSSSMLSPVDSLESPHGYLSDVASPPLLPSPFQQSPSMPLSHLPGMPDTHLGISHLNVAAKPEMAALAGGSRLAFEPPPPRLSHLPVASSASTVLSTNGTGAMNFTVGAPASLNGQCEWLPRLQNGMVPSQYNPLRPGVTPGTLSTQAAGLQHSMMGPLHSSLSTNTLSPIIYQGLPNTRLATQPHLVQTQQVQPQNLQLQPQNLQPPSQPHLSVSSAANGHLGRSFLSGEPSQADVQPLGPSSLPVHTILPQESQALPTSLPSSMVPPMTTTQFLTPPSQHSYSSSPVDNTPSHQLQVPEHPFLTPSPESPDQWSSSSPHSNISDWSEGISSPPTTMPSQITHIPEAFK

Experiments:
[1] = molecular target: FLAG-NOTCH1 (human) (UniProt P46531); assay: co-IP; same experiment as a6: synthetic IL-17RA decoy peptide (100 or 200 μM) added to transfected HEK293 cells as competitor; only the binder purified
[2] = molecular target: NOTCH1 (endogenous, mouse OPCs) (mouse (endogenous in OPCs)) (UniProt Q01705); assay: flow cytometry on cells; wild-type and NOTCH1 KO OPCs incubated with FITC-labelled IL-17RA decoy peptide (200 μM), then stained with PE-labelled anti-NOTCH1 antibody; only the binder purified
[3] = molecular target: T1, Act1 (endogenous, mouse OPCs) (mouse (endogenous in OPCs)) (UniProt Q8N7N6); assay: co-IP; wild-type mouse OPCs co-cultured with Act1 KO astrocytes, stimulated with IL-17 (50 ng ml^−1) for the indicated times; lysates immunoprecipitated with anti-Act1 antibody; immunoblot
T1 sequence: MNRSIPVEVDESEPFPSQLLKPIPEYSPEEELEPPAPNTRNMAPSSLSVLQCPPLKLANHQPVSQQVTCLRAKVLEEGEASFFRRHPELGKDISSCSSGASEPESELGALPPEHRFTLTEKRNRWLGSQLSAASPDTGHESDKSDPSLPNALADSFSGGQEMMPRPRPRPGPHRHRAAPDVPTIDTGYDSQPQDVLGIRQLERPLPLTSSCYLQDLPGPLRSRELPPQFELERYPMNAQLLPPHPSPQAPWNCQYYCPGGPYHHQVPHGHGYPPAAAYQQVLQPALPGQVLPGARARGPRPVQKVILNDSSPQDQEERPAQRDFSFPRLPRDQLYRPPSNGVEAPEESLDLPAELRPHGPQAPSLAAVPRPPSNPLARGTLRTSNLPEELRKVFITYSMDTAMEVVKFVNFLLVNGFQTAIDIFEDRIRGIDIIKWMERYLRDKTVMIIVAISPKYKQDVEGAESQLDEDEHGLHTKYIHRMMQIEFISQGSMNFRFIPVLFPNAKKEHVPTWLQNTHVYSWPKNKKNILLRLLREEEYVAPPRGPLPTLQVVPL

binding [1]: binds
binding [2]: binds
Binder: VQVQPFFSSCLNDCLRHAVTVPCPVISNTTVPKPVADYIP (fluorescein isothiocyanate (FITC) tag at its C terminus) [IL-17RA decoy peptide]

binding [3]: binds
B1: IL-17RA (endogenous, mouse OPC-astrocyte co-culture) (receptor, UniProt Q60943 32-864)
chain: SPRLLDFPAPVCAQEGLSCRVKNSTCLDDSWIHPKNLTPSSPKNIYINLSVSSTQHGELVPVLHVEWTLQTDASILYLEGAELSVLQLNTNERLCVKFQFLSMLQHHRKRWRFSFSHFVVDPGQEYEVTVHHLPKPIPDGDPNHKSKIIFVPDCEDSKMKMTTSCVSSGSLWDPNITVETLDTQHLRVDFTLWNESTPYQVLLESFSDSENHSCFDVVKQIFAPRQEEFHQRANVTFTLSKFHWCCHHHVQVQPFFSSCLNDCLRHAVTVPCPVISNTTVPKPVADYIPLWVYGLITLIAILLVGSVIVLIICMTWRLSGADQEKHGDDSKINGILPVADLTPPPLRPRKVWIVYSADHPLYVEVVLKFAQFLITACGTEVALDLLEEQVISEVGVMTWVSRQKQEMVESNSKIIILCSRGTQAKWKAILGWAEPAVQLRCDHWKPAGDLFTAAMNMILPDFKRPACFGTYVVCYFSGICSERDVPDLFNITSRYPLMDRFEEVYFRIQDLEMFEPGRMHHVRELTGDNYLQSPSGRQLKEAVLRFQEWQTQCPDWFERENLCLADGQDLPSLDEEVFEDPLLPPGGGIVKQQPLVRELPSDGCLVVDVCVSEEESRMAKLDPQLWPQRELVAHTLQSMVLPAEQVPAAHVVEPLHLPDGSGAAAQLPMTEDSEACPLLGVQRNSILCLPVDSDDLPLCSTPMMSPDHLQGDAREQLESLMLSVLQQSLSGQPLESWPRPEVVLEGCTPSEEEQRQSVQSDQGYISRSSPQPPEWLTEEEELELGEPVESLSPEELRSLRKLQRQLFFWELEKNPGWNSLEPRRPTPEEQNPS
